The results in this text go back to the RNAGym collection of RNA variant scans (doi:10.1101/gad.245936.114).

This sample is rich in variants without activity.

B1: tRNA (parent)
chain: CUCUCGGUAGCCAAGUUGGUUUAAGGCGCAAGACUUUAAUUUAUCACUACGAAAUCUUGAGAUCGGGCGUUCGACUCGCCCCCGGGAGAUUUUUUCCUCGAGCAA

In the series the parent is B1. The series can be described thus: nonsense suppression (GFP-seq) (ratio to wild type); higher = more function; SUP4oc tRNA, yeast GFP reporter sort-seq. In short, it runs like this:
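Nonsense suppression (GFPSEQ) is the median GFP/RFP ratio of each sorting bin, weighted by the variant's estimated share of cells in that bin and expressed relative to the unmutated parent tRNA. Yeast strains carried genome-integrated variants of an ochre-suppressor tRNA from a library with ~3% random mutations, plus a galactose-driven GFP ochre reporter and RFP, and were grown in raffinose/galactose medium containing 80 mg/L adenine. Cells were sorted into GFP/RFP bins, each bin was Illumina-sequenced (phred ≥30), and variants were kept only with ≥100 reads and ≥30 cells.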
Consider G7C A33G A60U G88U, for which the nonsense suppression was at most 0.026.
C11G A14G G61U G86A: the nonsense suppression was at most 0.026.
For the variant A13G C75A, the nonsense suppression stood at 0.71.
In the case of U20A U76C G85U, the nonsense suppression was at most 0.026.
U57A G59C: the nonsense suppression is at most 0.026.
Consider G10U A14G A54G G73C C75A, for which the nonsense suppression was at most 0.026.
Regarding A30G G61A G67U A87G, the nonsense suppression was at most 0.026.
On to U20G A23C C77U C79G, for which the nonsense suppression is at most 0.026.
For G6C C80G G88C, the nonsense suppression was at most 0.026.
As for C56U C72A, the nonsense suppression was at most 0.026.
With U21A G73C the figure was at most 0.026.
Then G25U C27G U63C, with at most 0.026; and A9C C12U U63C, with at most 0.026; and C1U G59C A60C, with at most 0.026.
Turning to G59U G86U, the nonsense suppression was at most 0.026.
As for G66A G78A, the nonsense suppression amounted to 0.0402.
With A33U G85A the figure was 0.0389; with U16G C56U C64A, at most 0.026; with G15C G65A C77A, at most 0.026.
On to U71G G73A U76G G84C, for which the nonsense suppression is at most 0.026.
For U2C C3A A23U G69C G73C C79G, the nonsense suppression was at most 0.026.
With G25A G73A, the nonsense suppression amounted to 0.0508.
Regarding U16C C56G U76C, the nonsense suppression was at most 0.026.
G59C: the nonsense suppression is at most 0.026.
Then A13U A14C U20C A24U C79U, with at most 0.026.
Regarding C27U U63C C68U U70G, the nonsense suppression was at most 0.026.
In the case of C5U U8G C56A U58G U76G, the nonsense suppression is at most 0.026.
Take G15U G18C G19A G86C: the nonsense suppression is at most 0.026.
Then G10C C27A, with at most 0.026; and A24U G88U, with at most 0.026.
Take C56U G61A: the nonsense suppression was at most 0.026.
Then A24C C34G C56G C77U, with at most 0.026; and A54G G65C, with at most 0.026.
As to G84A A89U, the nonsense suppression is at most 0.026.
As for C5U G7A C77G, the nonsense suppression is at most 0.026.
Take C11U U55A G61C G88C: the nonsense suppression is at most 0.026.
Take G26C C81U: the nonsense suppression was at most 0.026.
Then A13G G15U U20A G67C, with at most 0.026.
In the case of G73A U76C G85C, the nonsense suppression was at most 0.026.
As to A60G C81U, the nonsense suppression amounted to 0.0488.
Take A54U A62G G65C: the nonsense suppression was at most 0.026.
As to C1A A14C G78A G84A, the nonsense suppression was at most 0.026.
C81G: the nonsense suppression is at most 0.026.
Take C5G C83A A89C: the nonsense suppression is at most 0.026.
Then A9C C11G A33U A60C G85C, with at most 0.026; and U17C A24G G61C, with at most 0.026.
Then A13G U17C A33G G73U C81G, with at most 0.026; and U22A A33U, with at most 0.026.
Regarding A14C A33U U35G G67C, the nonsense suppression is at most 0.026.
On to U35A G65C G85C, for which the nonsense suppression was at most 0.026.
Consider A13U G61U U71A A89G, for which the nonsense suppression is at most 0.026.
Regarding G59U G61U C64A, the nonsense suppression is at most 0.026.
On to G15C U58G, for which the nonsense suppression is at most 0.026.
Regarding G19C G67C, the nonsense suppression is at most 0.026.
Then U4A G32U U35A, with at most 0.026; and C3G G7U C64G A89G, with at most 0.026; and A14G G59A, with at most 0.026.
U2G G6C G18A G67C G86A A87U: the nonsense suppression was at most 0.026.
Consider U21C A62C, for which the nonsense suppression was at most 0.026.
As to A24U G73U, the nonsense suppression was at most 0.026.
As for C12U A30C, the nonsense suppression is at most 0.026.
As to A74C C80G, the nonsense suppression was at most 0.026.
A13C C29A A33C G88U: the nonsense suppression was at most 0.026.
As for C5A U22C G86A, the nonsense suppression is at most 0.026.
Then C29G G61C G65C G85C, with at most 0.026; and C1G C27U, with at most 0.026; and U8C A89G, with at most 0.026.
C11U G28A A31G A54U C64U C77A: the nonsense suppression is at most 0.026.
Turning to G61A U63G, the nonsense suppression was found to be 0.227.
With G26C G32C U57C, the nonsense suppression was at most 0.026.
As for G18C G59A, the nonsense suppression was at most 0.026.
For C5U U8C G67C, the nonsense suppression was at most 0.026.
With A62U C64A G84C the figure was at most 0.026; with U20A A24C G65C C68U, at most 0.026; with U20C G59A, 0.0894.
With U8A A23G C27G U58G C68A C79G G85C the figure was at most 0.026; with G28U, at most 0.026.
On to G7C U8G U17G A23C A24U G67A G84A, for which the nonsense suppression was at most 0.026.
As for G59C G66U C83A A87C, the nonsense suppression is at most 0.026.
As to U8A A30U A60G G61U, the nonsense suppression is at most 0.026.
In the case of A14G U21C, the nonsense suppression is at most 0.026.
As to U8C A23G, the nonsense suppression is at most 0.026.
With A14G G28U G78C, the nonsense suppression was at most 0.026.
Then A54C A89C, with at most 0.026.
Consider C1A C12G U58A, for which the nonsense suppression is at most 0.026.
With C5U A14G, the nonsense suppression was at most 0.026.
For C11A A54C U58C G85U, the nonsense suppression was at most 0.026.
On to U20C U76A, for which the nonsense suppression was at most 0.026.
Turning to A14U U16G U55A G78A G85A G86A, the nonsense suppression is at most 0.026.
Then C3G C27A C83A G86C, with at most 0.026; and G15U G61A C75A, with at most 0.026.
Consider C11A A54C G59A U71C G88C, for which the nonsense suppression is at most 0.026.
Then U22C A62G U71G G86U G88U, with at most 0.026; and C3A U16A G66C C68A, with at most 0.026; and A54U G84A G86A, with at most 0.026.
As to A23U C75G, the nonsense suppression was at most 0.026.
In the case of C5U A24C, the nonsense suppression was at most 0.026.
For the variant A13C G26C U57A, the nonsense suppression was at most 0.026.
With U16G G88A the figure was at most 0.026; with A24U C27U G28U U58C G78C, at most 0.026.
For the variant C3A G19U A24G, the nonsense suppression is at most 0.026.
Consider C75U U76G, for which the nonsense suppression was 0.172.
Regarding A9G A30U U58A, the nonsense suppression worked out at 0.23.
With G19C U76C G88C the figure was at most 0.026; with G15U U16G, at most 0.026; with G67C G84A G86U G88C, at most 0.026.
With C29A U63A G84U the figure was at most 0.026; with A14U G28A, at most 0.026.
Turning to U8A A89G, the nonsense suppression was at most 0.026.
Regarding A31C G61A C75G, the nonsense suppression was at most 0.026.
Then C3U C11G G15U A33C, with at most 0.026; and U4C G18A, with at most 0.026; and U4G G67A C82U G88C, with at most 0.026.
As to A31G C72A G73A, the nonsense suppression was at most 0.026.
Turning to C29U G59C G61C, the nonsense suppression is at most 0.026.
As to G26C G78C, the nonsense suppression is at most 0.026.
On to C5U U8C C11G C27G C83G, for which the nonsense suppression is at most 0.026.
On to C1U C3U G67A A87C, for which the nonsense suppression is at most 0.026.
For the variant A60C C79U, the nonsense suppression amounted to 0.14.
Turning to C27U G28A, the nonsense suppression worked out at 0.0265.
For G7U U8A A24U C34A G59U G69C, the nonsense suppression was at most 0.026.
Then G19A G85C, with at most 0.026; and G32A C56A G78A G85U, with at most 0.026; and C29A A33G, with at most 0.026.
On to A62G U70C C81U, for which the nonsense suppression was at most 0.026.
With U22C A23G the figure was at most 0.026.
With G15C C27G G59A G78C the figure was at most 0.026.
Consider U22A C27G U71C G73A C80G, for which the nonsense suppression is at most 0.026.
Regarding U8C C56G U58C C77G G88A, the nonsense suppression was at most 0.026.
For A9U A24C C83A, the nonsense suppression was at most 0.026.
As to A60U G65C, the nonsense suppression was at most 0.026.
On to U57C C82G, for which the nonsense suppression was at most 0.026.
With A9G C11G G25C, the nonsense suppression is at most 0.026.
As to U20C G69C, the nonsense suppression is at most 0.026.
Turning to C3A A23C G61A G73A, the nonsense suppression was at most 0.026.
Then A13C U35G U57C, with at most 0.026; and U16G G19C, with at most 0.026.
Turning to G19A A30G C79U, the nonsense suppression is at most 0.026.
Take C1U A14U U21G G26U A62G G69A: the nonsense suppression is at most 0.026.
With U4A G7A G25U G59A the figure was at most 0.026; with G19U U55C U63A, at most 0.026; with G15C U76C, at most 0.026.
A30C A31U: the nonsense suppression is at most 0.026.
Then U35G G59A U63G C82A, with at most 0.026.
Regarding C5G A24C C64A, the nonsense suppression was at most 0.026.
With G25C G28A U71A, the nonsense suppression was at most 0.026.
Consider C1A G7U C12A C29A, for which the nonsense suppression was at most 0.026.
On to A14U G32A U70A, for which the nonsense suppression was at most 0.026.
Regarding G19C U21A U63C, the nonsense suppression is at most 0.026.
In the case of G10U A24U A60G G78A, the nonsense suppression was at most 0.026.
With U16C G88U, the nonsense suppression is at most 0.026.
For U55A A60C G61U, the nonsense suppression is at most 0.026.
For the variant U4A U35C G61C, the nonsense suppression is at most 0.026.
With C3U U4C C68A, the nonsense suppression is at most 0.026.
As to C3A C12G C27G G88U, the nonsense suppression was at most 0.026.
As to A30C U58G, the nonsense suppression was determined as 1.02.
For the variant C11A C68G, the nonsense suppression was at most 0.026.
With G10A U20A G26A C34A G86C, the nonsense suppression was at most 0.026.
With U20G A24U A30U G86C the figure was at most 0.026; with U55C C64G U70G U76A G78U, at most 0.026.
With A23C U70C, the nonsense suppression was at most 0.026.
On to C56G C64U A87G, for which the nonsense suppression is at most 0.026.
As to G7A U63A C79A G85U, the nonsense suppression was at most 0.026.
As for C34G U55G G88C, the nonsense suppression was at most 0.026.
Turning to G32C U76A, the nonsense suppression is at most 0.026.
For G10A A13G A30U C56A C82A G85A, the nonsense suppression is at most 0.026.
Take C34U G66C C81A G86C A89U: the nonsense suppression is at most 0.026.
